Measurements reported in publication PMC9386324.
These are yes or no findings as the source states them, for the method shown. In cells and extracts the contact can be indirect. Some binding calls cover weakened binding; strength is not graded here.

Amino acid sequences for entries named in this document (tags omitted). A change or cut given only in a name is not applied to a line headed by its entry.
UniProt Q49AJ0: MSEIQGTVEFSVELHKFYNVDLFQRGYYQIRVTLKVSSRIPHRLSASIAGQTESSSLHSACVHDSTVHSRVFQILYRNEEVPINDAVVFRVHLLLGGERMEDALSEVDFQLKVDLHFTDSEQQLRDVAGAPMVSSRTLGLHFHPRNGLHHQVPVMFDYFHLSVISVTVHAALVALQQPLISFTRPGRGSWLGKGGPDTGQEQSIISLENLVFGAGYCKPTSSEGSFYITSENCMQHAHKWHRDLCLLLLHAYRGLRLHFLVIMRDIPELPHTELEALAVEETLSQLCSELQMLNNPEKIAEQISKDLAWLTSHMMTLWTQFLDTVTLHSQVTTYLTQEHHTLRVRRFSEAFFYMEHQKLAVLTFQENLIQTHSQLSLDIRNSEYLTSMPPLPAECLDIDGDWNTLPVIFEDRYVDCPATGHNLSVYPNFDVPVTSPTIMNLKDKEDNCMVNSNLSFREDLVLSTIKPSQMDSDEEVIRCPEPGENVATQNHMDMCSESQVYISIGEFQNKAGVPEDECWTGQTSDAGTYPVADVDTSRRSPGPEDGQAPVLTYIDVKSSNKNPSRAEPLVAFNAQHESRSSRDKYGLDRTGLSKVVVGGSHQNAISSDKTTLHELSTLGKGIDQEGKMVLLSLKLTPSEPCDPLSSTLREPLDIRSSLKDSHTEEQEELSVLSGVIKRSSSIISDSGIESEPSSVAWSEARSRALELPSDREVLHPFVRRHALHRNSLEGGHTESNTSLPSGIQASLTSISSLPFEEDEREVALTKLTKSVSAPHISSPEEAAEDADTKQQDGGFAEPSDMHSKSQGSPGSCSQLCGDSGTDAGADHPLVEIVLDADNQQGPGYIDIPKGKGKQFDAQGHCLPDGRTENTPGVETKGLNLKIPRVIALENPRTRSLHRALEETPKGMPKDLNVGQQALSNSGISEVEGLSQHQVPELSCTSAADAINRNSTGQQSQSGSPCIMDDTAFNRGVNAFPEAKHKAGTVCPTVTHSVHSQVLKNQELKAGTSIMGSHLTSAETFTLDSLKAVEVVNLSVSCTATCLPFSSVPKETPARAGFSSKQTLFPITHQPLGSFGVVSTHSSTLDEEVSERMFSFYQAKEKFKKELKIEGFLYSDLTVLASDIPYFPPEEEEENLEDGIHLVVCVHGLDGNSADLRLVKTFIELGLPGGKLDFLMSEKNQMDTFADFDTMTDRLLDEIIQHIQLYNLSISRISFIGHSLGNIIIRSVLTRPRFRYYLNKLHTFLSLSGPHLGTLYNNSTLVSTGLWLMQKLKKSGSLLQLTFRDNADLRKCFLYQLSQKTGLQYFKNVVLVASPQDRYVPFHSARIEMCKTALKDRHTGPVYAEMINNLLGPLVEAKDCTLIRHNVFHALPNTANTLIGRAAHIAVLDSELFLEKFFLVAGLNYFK
UniProt Q92993: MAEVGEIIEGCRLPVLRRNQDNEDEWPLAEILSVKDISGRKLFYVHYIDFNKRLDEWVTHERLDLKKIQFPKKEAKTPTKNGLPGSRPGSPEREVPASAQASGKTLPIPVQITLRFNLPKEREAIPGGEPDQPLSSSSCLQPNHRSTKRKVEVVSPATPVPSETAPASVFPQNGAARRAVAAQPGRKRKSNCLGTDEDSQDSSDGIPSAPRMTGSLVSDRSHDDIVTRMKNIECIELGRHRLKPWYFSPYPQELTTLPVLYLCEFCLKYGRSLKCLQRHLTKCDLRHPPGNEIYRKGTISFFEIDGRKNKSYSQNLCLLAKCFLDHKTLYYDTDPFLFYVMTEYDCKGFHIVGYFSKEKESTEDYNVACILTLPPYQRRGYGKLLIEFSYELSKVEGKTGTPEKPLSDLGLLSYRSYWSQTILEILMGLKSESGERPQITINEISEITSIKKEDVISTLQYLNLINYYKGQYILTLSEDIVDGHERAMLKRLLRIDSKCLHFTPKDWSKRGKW

Legend:
[1] = target: GST-FAM135B fusion protein (UniProt Q49AJ0); assay: pull-down; GST-FAM135B on glutathione beads incubated with lysates of HEK-293T cells expressing MYC-TIP60 full length or truncated fragments; GST pull-down kit (Bersin bio); western blot; only the target purified
[2] = target: sequence similarity 135 family member B (FAM135B), endogenous (human (endogenous in KYSE510)) (UniProt Q49AJ0); assay: co-IP; endogenous proteins in KYSE510 lysate (RIPA); IP with anti-FAM135B or anti-TIP60, IgG as control; protein A/G Sepharose, NT-2 buffer (50 mM Tris-HCl pH 7.4, 150 mM NaCl, 1 mM MgCl2, .25% NP40), 4°C overnight
FAM135B-FLAG = FAM135B-FLAG (UniProt Q49AJ0); assay: co-IP; KYSE30 cells stably expressing FAM135B-FLAG; IP with anti-FLAG, anti-FAM135B or anti-TIP60, IgG as control; protein A/G Sepharose, NT-2 buffer, 4°C overnight
[3] = target: Tat-interactive protein 60-kDa (TIP60), endogenous (human (endogenous in KYSE30 and KYSE510)) (UniProt Q92993); assay: co-IP; endogenous proteins in KYSE510 lysate (RIPA); IP with anti-FAM135B or anti-TIP60, IgG as control; protein A/G Sepharose, NT-2 buffer (50 mM Tris-HCl pH 7.4, 150 mM NaCl, 1 mM MgCl2, .25% NP40), 4°C overnight
[4] = target: Tat-interactive protein 60-kDa (TIP60), endogenous (human (endogenous in KYSE30 and KYSE510)) (UniProt Q92993); assay: co-IP; KYSE30 cells stably expressing FAM135B-FLAG; IP with anti-FLAG, anti-FAM135B or anti-TIP60, IgG as control; protein A/G Sepharose, NT-2 buffer, 4°C overnight
[5] = target: Tat-interactive protein 60-kDa (TIP60), endogenous (human (endogenous in KYSE30 and KYSE510)) (UniProt Q92993); assay: proximity ligation; Duolink PLA in KYSE30-FAM135B cells, FAM135B and TIP60; resting conditions and after BLM treatment (signal significantly reduced)

| binding [1] | Substance | other results |
| --- | --- | --- |
| binds | MYC-TIP60 full length (FL, 1-513 aa) (from UniProt Q92993 1-513) | – |
| binds | MYC-TIP60 Δ1 (1-258 aa, containing the chromodomain, ChD) (from UniProt Q92993 1-258) (domain or fragment) | – |
| – | Tat-interactive protein 60-kDa (TIP60), endogenous (from UniProt Q92993 1-513) | binding [2]: binds; binding (FAM135B-FLAG): binds |
| no binding | MYC-TIP60 Δ3 (158-395 aa, including the ZinF and acetyl-CoA-binding domain, AcCoA) (from UniProt Q92993 158-395) (domain or fragment) | – |
| – | sequence similarity 135 family member B (FAM135B), endogenous (from UniProt Q49AJ0 1-1406) | binding [3]: binds |
| – | FAM135B-FLAG (from UniProt Q49AJ0 1-1406) | binding [4]: binds; binding [5]: binds |
| no binding | MYC-TIP60 Δ2 (69-290 aa, harbouring the Zinc finger domain, ZinF) (from UniProt Q92993 69-290) (domain or fragment) | – |
| no binding | MYC-TIP60 Δ4 (285-513 aa, including the AcCoA and NR domain) (from UniProt Q92993 285-513) (domain or fragment) | – |
